# Data as given in a collection of fitness landscapes (doi:10.1016/j.celrep.2020.107928).
# The full ranking holds about 81,000 sequences; the median of “one-hybrid fitness for binding NBS DNA” is about -0.1, and the highest 2% start at about 0.36. The list shows a part of the results.
# B1: Caulobacter ParB omega fusion; a variant is named by its letters at X, in order, B8GW30 (parent)
# chain: MESVVVGEPGMSEGRRGLGRGLSALLGEVDAAPAQAPGEQLGGSREAPIEILQRNPDQPRRTFREEDLEDLSNSIREKGVLQPILVRPSPDTAGEYQIVAGERAWRAAQRAGLKTVPIMVRELDDLAVLEIGIIENVQRADLNVLEEALSYKVLMEKFERTQENIAQTIGKSXSHVANXMRLLXLPDEVQSYLVSGELTAXHARAIAAAADPVALAKQIIEGGLSVRETEALARKAPNLSAGKSKGGRPPRVKDTDTQALESDLSSVLGLDVSIDHRGSTGTLTITYATLEQLDDLCNRLTRGI
# Variants of: B1
# Experiment: one-hybrid fitness for binding NBS DNA (the Noc-binding site; scaled: cognate 1, non-cognate 0); higher = stronger binding
# Conditions: with NBS DNA site
# How it was run: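 The reporter was HIS3, with the binding site 19 bp from the promoter, in E. coli USO used for bacterial one-hybrid selection of Caulobacter ParB libraries with four specificity codons randomised. Growth was on M9 lacking histidine, with 0.1 mM IPTG and 5 mM 3-AT, for 48 hours at 37°C. Illumina sequencing covered plasmids before and after selection; three replicate libraries were pooled and variants with under 10 reads dropped. A fitness score is the log change in variant-to-wild-type read ratio, rescaled to the cognate and non-cognate references.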
row,Variant,one-hybrid fitness for binding NBS DNA
1,YSCN,≤ 0.2
2,SPGG,≤ 0.2
3,YLNY,≤ 0.2
4,HYSS,≤ 0.2
5,NADK,≤ 0.2
6,HSMR,≤ 0.2
7,AKLI,≤ 0.2
8,NSTV,≤ 0.2
9,VLAP,≤ 0.2
10,EIQG,≤ 0.2
11,YNTN,≤ 0.2
12,PPYT,≤ 0.2
13,HPHF,≤ 0.2
14,AFRS,≤ 0.2
15,YLSY,≤ 0.2
16,KEHC,≤ 0.2
17,NYTR,≤ 0.2
18,SHSC,≤ 0.2
19,LSED,≤ 0.2
20,CCLC,≤ 0.2
21,NRNH,≤ 0.2
22,QHPT,0.248
23,PWPF,≤ 0.2
24,GLLY,≤ 0.2

row,Variant,one-hybrid fitness for binding NBS DNA
1,KTIS,≤ 0.2
2,RWDC,≤ 0.2
3,TRMF,≤ 0.2
4,CYAC,≤ 0.2
5,KWTG,≤ 0.2
6,GMSV,≤ 0.2
7,RKVT,0.512
8,FRPC,≤ 0.2
9,TMDC,≤ 0.2
10,PQTS,≤ 0.2
11,VYRR,≤ 0.2
12,NQTG,≤ 0.2
13,KDLE,≤ 0.2
14,RTRQ,0.297
15,DDCL,≤ 0.2
16,RTRR,0.818
17,VAAM,≤ 0.2
18,RVPP,≤ 0.2
19,HKSQ,≤ 0.2
20,WSHE,≤ 0.2
21,PHLG,≤ 0.2
22,PSCI,≤ 0.2
23,NLCE,≤ 0.2
24,VIHC,≤ 0.2

row,Variant,one-hybrid fitness for binding NBS DNA
1,HIMN,≤ 0.2
2,HANL,≤ 0.2
3,SCWS,≤ 0.2
4,LASY,≤ 0.2
5,LCWV,≤ 0.2
6,CEGR,≤ 0.2
7,QHFK,≤ 0.2
8,QLKE,≤ 0.2
9,SQFR,≤ 0.2
10,VEIA,≤ 0.2
11,QLHQ,≤ 0.2
12,STIY,≤ 0.2
13,SRQG,≤ 0.2
14,SLPI,≤ 0.2
15,DGIR,≤ 0.2
16,QYEC,≤ 0.2
17,QAQP,≤ 0.2
18,QSTT,0.403
19,YSKH,≤ 0.2
20,GVKW,≤ 0.2
21,APPM,≤ 0.2
22,SPIN,≤ 0.2
23,YLTY,≤ 0.2
24,SSTF,≤ 0.2

row,Variant,one-hybrid fitness for binding NBS DNA
1,REYC,≤ 0.2
2,GHHA,≤ 0.2
3,DSRC,≤ 0.2
4,MEDY,≤ 0.2
5,WWAS,≤ 0.2
6,HVGT,≤ 0.2
7,GVRD,≤ 0.2
8,QCVY,≤ 0.2
9,ADRC,≤ 0.2
10,RKHN,≤ 0.2
11,FNGA,≤ 0.2
12,PNNW,≤ 0.2
13,VLLT,≤ 0.2
14,GYSR,≤ 0.2
15,ISND,≤ 0.2
16,IWHR,≤ 0.2
17,TRHG,≤ 0.2
18,MQPT,≤ 0.2
19,LVPY,≤ 0.2
20,PYAA,≤ 0.2
21,HWCR,≤ 0.2
22,PMLN,≤ 0.2
23,NVHH,≤ 0.2
24,YTTD,≤ 0.2

row,Variant,one-hybrid fitness for binding NBS DNA
1,SELV,≤ 0.2
2,NMKM,≤ 0.2
3,CRQV,≤ 0.2
4,PHVM,≤ 0.2
5,ATLP,≤ 0.2
6,WPRW,≤ 0.2
7,SLGT,≤ 0.2
8,NPYE,≤ 0.2
9,SSFA,≤ 0.2
10,FYKS,≤ 0.2
11,SIYL,≤ 0.2
12,CIIR,≤ 0.2
13,HYYS,≤ 0.2
14,VIKL,≤ 0.2
15,RCAF,≤ 0.2
16,WMKE,≤ 0.2
17,VGHL,≤ 0.2
18,QING,≤ 0.2
19,WHNS,≤ 0.2
20,FTYT,≤ 0.2
21,LNFS,≤ 0.2
22,VNMG,≤ 0.2
23,IRHH,≤ 0.2
24,PELN,≤ 0.2

row,Variant,one-hybrid fitness for binding NBS DNA
1,AIMS,≤ 0.2
2,ESSV,≤ 0.2
3,FMTV,≤ 0.2
4,RHNH,≤ 0.2
5,CAGD,≤ 0.2
6,IWPL,≤ 0.2
7,YCYC,≤ 0.2
8,LNLY,≤ 0.2
9,GQFT,≤ 0.2
10,PSQI,≤ 0.2
11,KIRG,≤ 0.2
12,HEDG,≤ 0.2
13,NDGL,≤ 0.2
14,KWST,≤ 0.2
15,PNSE,≤ 0.2
16,RYGD,≤ 0.2
17,DHDV,≤ 0.2
18,TDSD,≤ 0.2
19,GYTY,≤ 0.2
20,LSKP,≤ 0.2
21,ALKL,≤ 0.2
22,DKTW,≤ 0.2
23,QKSL,≤ 0.2
24,CHKR,0.212

row,Variant,one-hybrid fitness for binding NBS DNA
1,YEAH,≤ 0.2
2,NTWH,≤ 0.2
3,FQNR,≤ 0.2
4,HERA,≤ 0.2
5,PMWK,≤ 0.2
6,NCTY,≤ 0.2
7,LKSN,≤ 0.2
8,STHL,≤ 0.2
9,CLET,≤ 0.2
10,WLLW,≤ 0.2
11,AFCS,≤ 0.2
12,ALNN,≤ 0.2
13,DMSY,≤ 0.2
14,DCLR,≤ 0.2
15,KAAL,≤ 0.2
16,EGVM,≤ 0.2
17,GTDT,≤ 0.2
18,RQGD,≤ 0.2
19,QVYY,≤ 0.2
20,LNQE,≤ 0.2
21,TEAL,≤ 0.2
22,YTDF,≤ 0.2
23,LQFR,≤ 0.2
24,HIHI,≤ 0.2

row,Variant,one-hybrid fitness for binding NBS DNA
1,MHLV,≤ 0.2
2,DYQT,≤ 0.2
3,ALPY,≤ 0.2
4,RLGC,≤ 0.2
5,RVEK,≤ 0.2
6,IIHV,≤ 0.2
7,SEIT,≤ 0.2
8,KIGG,≤ 0.2
9,AMCL,≤ 0.2
10,KQFG,≤ 0.2
11,TWPD,≤ 0.2
12,PNRK,≤ 0.2
13,RDKY,≤ 0.2
14,TELY,≤ 0.2
15,RHTT,0.427
16,HNRY,≤ 0.2
17,CGLL,≤ 0.2
18,YPES,≤ 0.2
19,KWTR,≤ 0.2
20,GDPA,≤ 0.2
21,RKHR,0.648
22,TKFT,≤ 0.2
23,QFME,≤ 0.2
24,PTID,≤ 0.2

row,Variant,one-hybrid fitness for binding NBS DNA
1,IVWT,≤ 0.2
2,TFGR,≤ 0.2
3,GEFS,≤ 0.2
4,TQVW,≤ 0.2
5,MCMV,≤ 0.2
6,FTGT,≤ 0.2
7,HRLY,≤ 0.2
8,RFYS,≤ 0.2
9,VWRG,≤ 0.2
10,ISRL,≤ 0.2
11,WAQC,≤ 0.2
12,QGTF,≤ 0.2
13,KLES,≤ 0.2
14,QKSK,≤ 0.2
15,WCLC,≤ 0.2
16,GRDC,≤ 0.2
17,GHTF,≤ 0.2
18,CAKM,≤ 0.2
19,TCNH,≤ 0.2
20,TDLT,≤ 0.2
21,QQKF,0.356
22,ANST,≤ 0.2
23,GFGC,≤ 0.2
24,LPYS,≤ 0.2

row,Variant,one-hybrid fitness for binding NBS DNA
1,FYCC,≤ 0.2
2,DLKT,≤ 0.2
3,AYWW,≤ 0.2
4,QVES,≤ 0.2
5,DPIL,≤ 0.2
6,RKIW,≤ 0.2
7,CIVS,≤ 0.2
8,PKQT,≤ 0.2
9,WLTT,≤ 0.2
10,VGVS,≤ 0.2
11,DHHQ,≤ 0.2
12,PCNM,≤ 0.2
13,RYQS,0.386
14,KVLS,≤ 0.2
15,AVRW,≤ 0.2
16,HFNC,≤ 0.2
17,CKCR,≤ 0.2
18,DALH,≤ 0.2
19,SNNY,≤ 0.2
20,REFL,≤ 0.2
21,MMPI,≤ 0.2
22,VDNT,≤ 0.2
23,ITRG,≤ 0.2
24,RYFF,≤ 0.2

row,Variant,one-hybrid fitness for binding NBS DNA
1,FDHC,≤ 0.2
2,FNPA,≤ 0.2
3,SLCE,≤ 0.2
4,RDAD,≤ 0.2
5,PLLC,≤ 0.2
6,QAYM,≤ 0.2
7,NICA,≤ 0.2
8,RYWH,≤ 0.2
9,TNKE,≤ 0.2
10,MAAT,≤ 0.2
11,AGTT,≤ 0.2
12,ADVT,≤ 0.2
13,TLRG,≤ 0.2
14,LWQS,≤ 0.2
15,CFGT,≤ 0.2
16,AHNT,≤ 0.2
17,TMRM,≤ 0.2
18,YQFV,≤ 0.2
19,PLDY,≤ 0.2
20,LACC,≤ 0.2
21,DCHT,≤ 0.2
22,QCRP,0.352
23,AAQL,≤ 0.2
24,VRHN,≤ 0.2

row,Variant,one-hybrid fitness for binding NBS DNA
1,FDQE,≤ 0.2
2,LQVV,≤ 0.2
3,EPVS,0.215
4,SPDC,≤ 0.2
5,GAPL,≤ 0.2
6,TGDI,≤ 0.2
7,KKCS,≤ 0.2
8,GSIG,≤ 0.2
9,EQLY,≤ 0.2
10,GTDR,≤ 0.2
11,CPVG,≤ 0.2
12,HNES,≤ 0.2
13,TMAT,≤ 0.2
14,PLDE,≤ 0.2
15,TISS,≤ 0.2
16,CAKF,≤ 0.2
17,VETL,≤ 0.2
18,NNMF,≤ 0.2
19,RIHY,≤ 0.2
20,RMFG,≤ 0.2
21,IHPQ,≤ 0.2
22,CYSP,≤ 0.2
23,EHQF,≤ 0.2
24,RTLW,≤ 0.2

row,Variant,one-hybrid fitness for binding NBS DNA
1,VQNT,≤ 0.2
2,VMRE,≤ 0.2
3,GVPK,≤ 0.2
4,ISIH,≤ 0.2
5,LILT,≤ 0.2
6,IYQV,≤ 0.2
7,TTFV,≤ 0.2
8,MVKT,≤ 0.2
9,PPPI,≤ 0.2
10,KNWT,≤ 0.2
11,KKIS,≤ 0.2
12,GRSC,≤ 0.2
13,AHIR,≤ 0.2
14,DNTM,≤ 0.2
15,NSQY,≤ 0.2
16,GESA,≤ 0.2
17,SATN,≤ 0.2
18,MVNT,≤ 0.2
